{
  "source": "patent US10689459B2",
  "about": "“Treatment of breast cancer brain metastases” (THE GENERAL HOSPITAL CORPORATION, priority 2014, dated 2020)",
  "molecules": {"B1": {"name": "MOR10703: HER3 inhibitor antibody, sequence in Table 1; induces a conformational change and locks HER3 in an inactive state (antibody)", "heavy": "EVQLLESGGGLVQPGGSLRLSCAASGFTFSSYAMSWVRQAPGKGLEWVSAINSQGKSTYYADSVKGRFTISRDNSKNTLYLQMNSLRAEDTAVYYCARWGDEGFDIWGQGTLVTVSSASTKGPSVFPLAPSSKSTSGGTAALGCLVKDYFPEPVTVSWNSGALTSGVHTFPAVLQSSGLYSLSSVVTVPSSSLGTQTYICNVNHKPSNTKVDKRV[here human IgG1 Fc without letters]", "light": "DIQMTQSPSSLSASVGDRVTITCRASQGISNWLAWYQQKPGKAPKLLIYGASSLQSGVPSRFSGSGSGTDFTLTISSLQPEDFATYYCQQYSSFPTTFGQGTKVEIKRTVAAPSVFIFPPSDEQLKSGTASVVCLLNNFYPREAKVQWKVDNALQSGNSQESVTEQDSKDSTYSLSSTLTLSKADYEKHKVYACEVTHQGLSSPVTKSFNRGEC"}},
  "key": {"[1]": {"test_system": "BT474-Gluc brain tumors", "assay": "BT474-Gluc brain tumor growth and survival analysis", "format": "in vivo, nude mice", "details": "MOR10703 25 mg/kg every two days i.p., COMPOUND A 30 or 50 mg/kg once a day p.o., FIG. 2A", "text": "We tested the ability of the HER3 inhibitor MOR10703 alone or in combination with COMPOUND A, to slow the growth of BT474-Gluc brain tumors BM (FIG. 2A-B). […] The tumor growth delay with the combination therapies led to a 2.5 or 2-fold increase in survival, compared with the COMPOUND A monotherapy group, in BT474-Gluc or MDA-MB-361-Gluc brain tumors, respectively (3A-B).\nFemale nude mice (8-9 wk of age) were ovariectomized and implanted with a 0.36-mg or 0.72-mg 17β-estradiol pellet (Innovative Research of America) the day before implantation of tumor cells. Pellets were replaced at expiration date, either 60 or 90 days. For the mammary fat pad model, 5×10^6 BT474-Gluc cells were suspended in a 50-μL mixture of PBS and Matrigel Matrix High Concentration (BD Biosciences) at a 1:1 ratio before injection. For injection into the brain, the head of the mouse was fixed with a stereotactic apparatus and the skull over the left hemisphere of the brain was exposed via skin incision. […]\nTumor size was measured twice a week by measuring the activity of secreted Gluc in the blood. […] Blood was transferred to an opaque 96-well plate, and Gluc activity was measured using coelenterazine (CTZ; Nanolight) as a substrate and a plate luminometer (Centro XS LB960; Berthold Technologies). […]\nData are expressed as the mean±SEM unless otherwise noted. […]"}, "[2]": {"test_system": "T-47D, BT474 and MDA-MB-361 cells", "assay": "In vitro cell growth assay (xCELLigence, CellTiter-Glo), NRG1-induced resistance", "format": "cell-based, human", "details": "MOR10703 100 nM, NRG1 10 ng, COMPOUND A 1 μM", "method": "The xCELLigence system (Acea Biosciences Inc.) was used to assess the cell index of T-47D, BT474 and MDA-MB-361 cells. xCELLigence measures electrical impedance across micro-electrodes integrated at the bottom of tissue culture E-plates to provide quantitative information about the biological status of cells, including cell number, morphology and viability. One day before drug addition, cells were seeded in 96-well E-plates at a density of 6000-10000 cells per well in 90 μl growth media. Cells were monitored every 15 m for a period of up to 24 h via the incorporated sensor electrode arrays of the E-Plate 96. After 24 h incubation E-plates were removed, and MOR10703 (100 nM) was added first and incubated for 1 h followed by NRG1 (10 ng) and/or COMPOUND A (1 μM). Each treatment was tested in triplicate. Electric impedance was measured in 1 h intervals after addition of drug until the end of the experiment. Cell index value, which is a dimensionless parameter derived as a relative change in measured electrical impedance to represent numbers of attached cells, was calculated from the electric impedance and plotted using the RTCA software provided by the vendor. At the end of the experiment, cell growth and/or viability was determined by measuring cellular ATP content using the CellTiter-Glo Luminescent Cell Viability Assay (Promega; Madison, Wis.) according to the manufacturer's protocol."}},
  "data": [
    {"molecule": "B1", "values": [
      {"measurement": "growth of breast cancer in the brain parenchyma (blood Gluc activity)", "setting": "[1]", "value": "did not significantly slow the growth"},
      {"measurement": "effect on NRG1-induced breast cancer PI3K inhibitor resistance", "setting": "[2]", "value": "overcome"}
    ]}
  ]
}
